Assay results as given in PubChem BioAssay AID1508624 (National Center for Advancing Translational Sciences (NCATS), 2021).
Among all 48,000 compounds or so, about 120 (0.25%) were called active. Inconclusive results (about 4%) are left out. Calls follow the shape of the dose curve; as a rule, active = well fitted activation curve with a large enough effect; inconclusive = small, poorly fitted or top-dose-only effect, or another doubt; inactive = no such curve, though single readings can be large or run the other way. This is one part of the list.

Experiment: Primary qHTS for Identification of Small Molecule Activators of Huntingtin-Antisense Promoter Activity; also: nearly all actives have a fitted effect of over 55% in size
Conditions: HEK293 HTT-AS promoter firefly luciferase reporter, 24 h; series mostly up to 57.5 µM; activity change, positive = activation: at the top concentration
Description: Assay Provider: Russell L. Margolis M.D.
Department Neurology, Johns Hopkins University School of Medicine, Baltimore, MD
Huntington's Disease (HD) is a neurodegenerative disorder caused by a CAG repeat expansion in exon 1 of huntingtin (HTT). While there are currently no disease-modifying treatments for HD, recent efforts have focused on development of nucleotide-based therapeutics to lower HTT expression. As an alternative to siRNA or oligonucleotide methods, we hypothesized that suppression of HTT expression might be accomplished by small molecules that either (1) directly decrease HTT expression by suppressing HTT promoter activity or (2) indirectly decrease HTT expression by increasing the promoter activity of HTT-AS, the gene antisense to HTT that appears to inhibit expression of HTT.
We developed and employed a high throughput screen for modifiers of HTT and HTT-AS promoter activity using luminescent reporter HEK293 cells; of the 52,041 compounds tested, we identified 898 replicable hits. We used a rigorous stepwise approach to assess compound toxicity and the capacity of the compounds to specifically lower huntingtin protein in 5 different cell lines, including HEK293 cells, HD lymphoblastoid cells, mouse primary neurons, HD iPSCs differentiated into cortical-like neurons, and HD hESCs. We found no compounds which were able to lower huntingtin without lowering cell viability in all assays, though the potential efficacy of a few compounds at non-toxic doses could not be excluded.
SEQUENCE No. (1, 2, 3, etc.); […] (e.g., Cells, Incubation, Reagent, etc.); VALUE and DESCRIPTION.
1; Reagent; 4 uL; 2,500 Hek293 luciferase reporter cells per wells
3; Compound; 23 nL; Control inhibitor / compound library
5; Reagent; 2.5 uL; Firefly Luc reagent; Dual-Glo Luciferase Reporter Assay System (Promega)
6; Time; 10 min; room temperature incubation
7; Detection; Luminescence; FLuc
NOTES (numbers refer to sequence above)
1; High-throughput screening, measuring luminescence from a Hek293 luciferase reporter, was performed in 1,536 well white-walled tissue-culture treated plates. 2,500 cells were plated in 4 µL of Opti-MEM per well using a Multidrop Combi Reagent Dispenser (ThermoFisher).
2; Assay plates were cultured for 24 hours.
3; Control inhibitor (PTC124; final concentration of 50 uM) and compound library (at final concentrations of 460 nM - 57.5 uM) were added to the assay plate using the Kalypsis Pintool Robotic System equipped with 1536 pinheads.
4; Cells were then incubated for 24 hours at 37 degrees C prior to luminescence measurements.
5; In all cases, luminescence was measured using the Dual-Glo Luciferase Reporter Assay System (Promega) following the manufacturer's instructions.
6; Room temperature incubation.
7; Luminescence signal was obtained using the PerkinElmer ViewLux plate reader. Results were normalized to vehicle control (0% activity) and zero RLU (-100% activity).

Row | SMILES | activity change, positive = activation
1 | COc1ccccc1-c1noc(-c2ccc(NCc3cccnc3)c([N+](=O)[O-])c2)n1 | inactive: -0.901%
2 | NC(=O)CSc1nnnn1-c1cccc(O)c1 | inactive: -16.2%
3 | COc1cccc(CN2C(=O)C3(SCC(=O)N3c3ccc(C(C)C)cc3)c3ccccc32)c1 (configuration not stated) | inactive: -35.1%
4 | Cn1c(SCc2ccccc2Cl)nc2c([nH]c3ccccc32)c1=O | inactive: -12.9%
5 | CCOc1ccc(C(=O)Nc2ccc3oc(-c4ccc(Br)cc4)nc3c2)cc1 | inactive: -8.21%
6 | CCOC(=O)c1ccc(N2C(=O)Cc3cc(OCC)c(OCC)cc3C2c2ccccc2)cc1 (configuration not stated) | inactive: 12.2% [at 11.5 µM, percent change from vehicle, -100% = no light]
7 | O=C(c1ccc2c(c1)OCCO2)N(Cc1cccnc1)c1nc2c(F)cc(F)cc2s1 | inactive: -20%
8 | COc1cccc(CNS(=O)(=O)c2ccc(-c3cc(C(F)(F)F)on3)s2)c1 | inactive: -21.4%
9 | COc1ccc(N(CC(=O)Nc2cc(Cl)ccc2C)S(=O)(=O)c2c(C)noc2C)cc1 | inactive: -48.1%
10 | CCOc1ccc(NS(=O)(=O)c2ccc3[nH]cc(C(=O)N4CCCCCC4)c(=O)c3c2)cc1 | inactive: -11.6%
11 | COc1ccc(Cc2nc3ccc(C(=O)NCCCN4CCN(C)CC4)cc3o2)cc1 | inactive: -8.88%
12 | Cc1ccccc1-c1nc(SCC(=O)NCC2CCCO2)c2c(=O)n(C)c(=O)n(C)c2n1 (configuration not stated) | inactive: -6.43%
13 | COc1ccc(N2CCN(C(=O)c3sc4nc5n(c(=O)c4c3C)CCC5)CC2)cc1 | inactive: -9.88%
14 | COCCNC(=O)c1ccc2c(=O)n(CCOC)c(SCC(=O)c3c[nH]c4ccccc34)nc2c1 | inactive: -22%
15 | Cc1cccc(CCNC(=O)CCc2c(C)nc3ncnn3c2C)c1 | inactive: -1.77%
16 | O=C(COc1ccc(F)cc1)Nc1ccccc1OCc1cc(=O)n2ccccc2n1 | inactive: -2.05%
17 | COc1ccc(-c2noc(-c3ccc(NC4CCCCC4)c([N+](=O)[O-])c3)n2)cc1 | inactive: -7.98%
18 | CCC1CCc2nc3sc(C(=O)Nc4cccc(C(F)(F)F)c4)c(N)c3cc2C1 (configuration not stated) | inactive: -24.2%
19 | CCc1nn2c(=O)cc(COC(=O)c3ccc(NC(=O)C4CCCCC4)cc3)nc2s1 | inactive: 19.4%
20 | CCCc1cc(=O)oc2cc(C)c3c(C(C)(C)C)coc3c12 | inactive: -12.4%
21 | O=C(CCn1c(=O)c2cccn2c2cccnc21)NCc1ccccc1F | inactive: -0.163%

Row | SMILES | activity change, positive = activation
22 | COc1cccc(NC(=O)c2ccc3[nH]c(C)cc(=O)c3c2)c1 | inactive: 2.98%
23 | NC(=O)c1ccccc1O | inactive: -7.2%
24 | COC(=O)c1ccc(Cn2nc(-c3ccc(C)cc3)ccc2=O)cc1 | inactive: -11.6%
25 | Cc1ccc(CCNC(=O)c2cc(C)nc3c2c(C)nn3-c2ccc(C)cc2)cc1 | inactive: -12.3%
26 | O=C(Nc1ccc(C(F)(F)F)cc1)C1CCN(c2cnccn2)CC1 | inactive: -30.2%
27 | COc1cccc(Cn2c(SCC(=O)N(C)c3ccccc3)nc3ccccc32)c1 | inactive: -21.5%
28 | COc1cccc2cc(-c3csc(-c4ccc(Cl)cc4)n3)c(=O)oc12 | inactive: -13.3%
29 | O=C(Nc1ccc(F)c(C(F)(F)F)c1)Nc1nnc(-c2ccncc2)s1 | inactive: -33.3%
30 | Cc1ccccc1CNC(=O)c1ccc(CSc2nc3cccnc3n2Cc2ccccc2)cc1 | inactive: -25.4%
31 | CCc1ccc(-n2c(SCc3ccccc3C)nc3[nH]ncc3c2=O)cc1 | inactive: -31.2%
32 | Cc1ccc(-c2nc(CS(=O)(=O)CC(=O)NCc3ccc(Cl)cc3)c(C)o2)cc1 | inactive: -10.2%
33 | COC(=O)c1ccc(Cn2c(SCc3ccccc3)nc3ccncc32)cc1 | inactive: 4.15%
34 | CCCN(C(=O)COc1cc(=O)n(CC)c2ccccc12)c1ccc(C(C)C)cc1 | inactive: -40.8%
35 | CCc1ccc(-n2nc(C)c3c(C(=O)Nc4cc(C)c(Cl)cc4OC)cc(C)nc32)cc1 | inactive: -7.4%
36 | CC(C)c1ccc(NC(=O)CCS(=O)(=O)c2cccc3nonc23)cc1 | inactive: 13.9%
37 | CCc1ccc(-c2nn(CC(=O)NCc3ccccc3)c3c2cnc2ccc(C)cc23)cc1 | inactive: -3.48%
38 | O=C(CN1CCSc2ccccc21)N1CCCCC1 | inactive: -7.45%
39 | Cc1ccc(CCNC(=O)c2ccc(CNS(=O)(=O)c3ccccc3)cc2)cc1 | inactive: -31.4%
40 | CCOc1ccccc1NC(=O)Cn1c(=O)n(-c2ccc(F)cc2)c(=O)c2c3c(sc21)CN(C(C)=O)CC3 | inactive: -7.83%
41 | CCc1nn(CC(=O)NCc2ccc(OC)c(OC)c2)c(=O)c2cc3sc(C)cc3n12 | inactive: -10.7%
42 | CCOC(=O)c1c(NC(=O)c2cc3nc(-c4ccccc4)cc(C(F)(F)F)n3n2)sc2c1CCC(C)C2 (configuration not stated) | inactive: -11.7%

Row | SMILES | activity change, positive = activation
43 | CCCNC(=O)c1cnc2sc(N3CCCCCC3)nn2c1=O | inactive: 14.3%
44 | Cc1cc(C(=O)Nc2cccc(F)c2)c2c(C)nn(-c3cccc(Cl)c3C)c2n1 | inactive: -41.4%
45 | CCOc1ccc(C(=O)Nc2ccccc2OCc2cc(=O)n3ccccc3n2)cc1 | inactive: -6.99%
46 | COc1ccccc1OCCCCn1c(-c2ccc(Cl)cc2)nc2ccccc2c1=O | inactive: -6.56%
47 | CCOC(=O)N1CCC(=C2c3ccc(Cl)cc3CCc3cccnc32)CC1 | inactive
48 | COc1ccc(CCNC(=O)c2nc(SCc3ccc(C)cc3)ncc2Cl)cc1OC | inactive: -45.5%
49 | CCOC(=O)Cn1c(=O)n(-c2ccccc2OC)c2nc(-c3ccccc3F)nc(C(N)=O)c21 | inactive: -17.7%
50 | CN(C)c1ccc(C(=O)Nc2cccc(-c3nc4cccnc4s3)c2)cc1 | inactive: 8.81%
51 | COc1cccc2c1Oc1ncccc1N(C(=O)CCC(=O)NC(C)C)C2 | inactive: -6.86%
52 | CCC(=O)N1CCc2cc(CNS(=O)(=O)c3ccc(NC(=O)CC(C)C)cc3)ccc21 | inactive: -27.6%
53 | CCc1c(C)sc2c1CCN(C(=O)Nc1cc(Cl)c(OC)cc1OC)C2c1ccccc1 (configuration not stated) | inactive: -17%
54 | COc1ccc2c(c1)CC(C(=O)NCCCN1CCN(c3ccccc3F)CC1)CO2 (configuration not stated) | inactive: -20.5%
55 | CCC(=O)N1CCc2cc(Br)cc(S(=O)(=O)CCC(=O)Nc3ccc(C)c(F)c3)c21 | inactive: 10%
56 | C#CCn1cnc2c(cnn2-c2ccc(F)cc2)c1=O | inactive: -4.7%
57 | O=C(NOCC1CC1)c1ccc(F)c(F)c1Nc1ccc(I)cc1Cl | inactive
58 | CCn1c(C)c(C)c2cc(C(=O)NCc3ccc(OC)cc3OC)ccc21 | inactive: -11.8%
59 | CCN(CC)S(=O)(=O)c1ccc(NC(=O)c2c(C)oc3ncnc(N4CCOCC4)c23)cc1 | inactive: -18.6%
60 | CC(C)(C)c1ccc(C2=NC(C)(C)N(CC(=O)Nc3ccc(F)c(F)c3)C2=O)cc1 | inactive: -31%
61 | CC(=O)Nc1ccc(NC(=O)c2cc3sccc3n2Cc2ccc(Cl)cc2)cc1 | inactive: -22.4%
62 | COc1cc(NC(=O)Cn2cnc3c2c(=O)n(C)c(=O)n3C)c(OC)cc1Cl | inactive: -11.4%
